Test results taken from US12280026B2, “Use of repirinast in the prophylaxis or treatment of renal fibrosis or kidney disease” (ALGERNON PHARMACEUTICALS INC., priority 2018, dated 2025).
The name of at least one read-out is uncertain.

Key:
Type in all cases: in vivo
[1] = test system: C57BL/6 mice with UUO surgical ligation; assay: Example 1: UUO mice, renal fibrosis evaluation (Sirius Red histology score); details: male C57BL/6 mice, PO QD days 1-14, mg/kg: Telmisartan 5, Iguratimod 15, Repirinast 30, Lobenzarit 48, Actarit 60, Ifenprodil 30, Bemithyl 200, Bromantane 20, Emoxypine 160, Udenafil 40, Suplatast Tosylate 60, Istradefylline 8; for Histology Score (Sirius Red Stain Scoring): 0=normal, 1=light, 2=moderate, 3=severe, group mean; for % Reduction Fibrosis (vs vehicle): from Sirius Red histology score
Method: (§1) Male 9-12 week old C57BL/6 mice of 23-25 grams body weight were used. All mice were acclimated for a minimum of 5 days prior to the start of the study and housed individually in microisolators throughout the study in a 12:12 light-dark cycle on a standard maintenance mouse chow diet (Harlan Teklad 2018) with food and water given ad libitum. Prior to surgery, all mice were weighed for baseline body weight.
(§2) The UUO surgical intervention was performed according to previously described methods known in the art (Le Meur Y et al., Macrophage accumulation at a site of renal inflammation is dependent on the M-CSF/c-fms pathway, J Leukocyte Biol., 72:530-537; 2002).
(§3) All mice were first anesthetized by intraperitoneal injection with a rodent cocktail (ketamine 10 mg/mL and Xyaline 1 mg/mL) in normal saline (10 μL/g body weight). Pedal reflex and movement of the vibrissae were used to determine the state of unconsciousness. A state of unconsciousness was confirmed after a period of about 5 minutes in all animals. All mice were then shaved on the left side of the abdomen. The shaved area was first swabbed with iodine and then swabbed with alcohol. A vertical incision was made through the skin with a #22 scalpel and the skin was then retracted. A further incision of about 2.5 cm was then made through the peritoneum avoiding any major blood vessels. The peritoneum was then retracted and the left kidney was exposed.
(§4) The left kidney was then brought to the surface by hooking the ureter directly beneath the kidney with sterile forceps and gently manipulating the kidney upward. The ureter was ligated at two points directly below the kidney with 5-0 surgical silk with excess suture cut away and discarded post-ligation. The kidney was then gently placed back to its correct anatomical position and the abdomen was lavaged with 1 mL sterile saline to replenish fluid loss. The peritoneum and then skin were sutured with 5-0 Mersilene, and the incision site was gently wiped with iodine. All mice were then placed individually in clean cages that were set on top of a thermal blanket until recovery at about 30-60 minutes later. In some examples, sham surgery was performed as a control by following all steps of the UUO surgical intervention procedure except ligation.
(§5) Following surgery, the mice were divided into 14 individual study groups of 8 mice each and, following post-surgical recovery, administered a once-daily oral treatment for 14 days. The mice in 12 of the 14 study groups (hereafter known as “treatment groups”) had all received the UUO surgical ligation and were treated individually with a distinct pharmacologic compound as set out in Table 1. The mice in 2 of the 14 study groups were treated individually with a pharmaceutically acceptable vehicle with no active ingredient. The pharmaceutically acceptable vehicle in all groups was 0.5% carboxymethyl cellulose (CMC). All mice were sacrificed with CO2 on post-surgical day 15.
(§6) The dose selected for the animal studies was determined by taking the maximum known human daily dose, dividing by the average weight of an adult (˜60-70 kg) to get a human mg/kg dose. Then that number was multiplied by 12 to convert to a mouse dose based on conventional dosing tables. See Nair and Jacob, J Basic Clin Pharm March 2016-May 2016, 7(2):27-31.
Histopathology: Formalin-fixed kidney cross-section samples were subjected histopathological scoring with Sirius Red staining, and imaged at a magnification of ×20, using standard techniques. All three sections were stained and evaluated. The analysis was performed by a board-certified veterinarian pathologist. The presence of interstitial damage and severity score was assessed according to the following criteria: 0=normal, 1=light, 2=moderate, 3=severe.
Values are arithmetic means. Comparison between the study group and positive control group was performed using a two-tailed, heteroscedastic (two-sample unequal variance) Student's T-Test. […]

[2] = test system: C57BL/6 mice with UUO surgical ligation; assay: Example 1: UUO mice, kidney weight evaluation (ligated vs non-ligated kidney); details: PO QD days 1-14, mg/kg: Telmisartan 5, Iguratimod 15, Repirinast 30, Lobenzarit 48, Actarit 60, Ifenprodil 30, Bemithyl 200, Bromantane 20, Emoxypine 160, Udenafil 40, Suplatast Tosylate 60, Istradefylline 8; for Difference (L − R) of kidney weights / L-kidney (ligated, UUO) weight / R-kidney (non-ligated) weight: group mean, day 15, male C57BL/6 mice; for Reduction of kidney weight difference (L − R) versus vehicle: male C57BL/6 mice
Method: as §1, §2, §3, §4, §5, §6
Kidney weight: The UUO was then examined in situ to ensure that the surgical ligation ties remained patent. Both the ligated (UUO) and non-ligated kidneys were removed for analysis. Weights of both kidneys were measured using a laboratory balance.
Kidney Weight Evaluation: Kidney weight indicating, which indicates functional and pathological changes in the kidney, was evaluated by measuring the weight of both the ligated (UUO) and non-ligated kidneys as previously described. The ligated and non-ligated kidney weights of each study group consisted of the respective kidney weight averages of all mice in each study group.

[3] = test system: C57BL/6 mice with UUO surgical ligation; assay: Example 1: UUO mice, renal function evaluation (plasma BUN, creatinine); details: plasma at sacrifice day 15, group mean, male C57BL/6 mice, PO QD days 1-14, mg/kg: Telmisartan 5, Iguratimod 15, Repirinast 30, Lobenzarit 48, Actarit 60, Ifenprodil 30, Bemithyl 200, Bromantane 20, Emoxypine 160, Udenafil 40, Suplatast Tosylate 60, Istradefylline 8; for BUN: * p<0.05 vs vehicle Bonferroni, # Tamhane
Method: as §1, §2, §3, §4, §5, §6
Serum collection: A blood sample was then collected from all mice and plasma analyzed for urea nitrogen and creatinine. Plasma was stored at −80° C. for possible future analysis.
Renal Function Evaluation: Renal function and disease progression was evaluated by BUN (blood urea nitrogen) as previously described. The BUN of each study group consisted of the BUN average of all mice in each study group.

[4] = Example 1: UUO mice, mean body weight change following surgery; details: PO QD days 1-14, mg/kg: Telmisartan 5, Iguratimod 15, Repirinast 30, Lobenzarit 48, Actarit 60, Ifenprodil 30, Bemithyl 200, Bromantane 20, Emoxypine 160, Udenafil 40, Suplatast Tosylate 60, Istradefylline 8; for Mean Body Weight Change Following Surgery, day 1 post surgery: day 1, male C57BL/6 mice; for Mean Body Weight Change Following Surgery, day 2 post surgery: day 2, male C57BL/6 mice; for Mean Body Weight Change Following Surgery, day 5 post surgery: day 5, male C57BL/6 mice; for Mean Body Weight Change Following Surgery, day 8 post surgery: day 8, male C57BL/6 mice; for Mean Body Weight Change Following Surgery, day 10 post surgery: day 10, male C57BL/6 mice; for Mean Body Weight Change Following Surgery, day 14 post surgery: day 14, male C57BL/6 mice
Method: as §1, §2, §3, §4, §5, §6
Body weight: The body weights were measured on days 1, 2, 5, 8, 10 and 14 using a laboratory balance.
Body weights were measured on post-surgical days 1, 2, 5, 8, 10 and 14 as previously described. The mean body weight change of each study group was calculated using the body weight average of all mice in each study group.

Compound | Histology Score (Sirius Red Stain Scoring) [1] | % Reduction Fibrosis (vs vehicle) [1] | Difference (L − R) of kidney weights [2] | L-kidney (ligated, UUO) weight [2] | Reduction of kidney weight difference (L − R) versus vehicle [2] | BUN [3] | Creatinine [3] | Mean Body Weight Change Following Surgery, day 1 post surgery [4] | Mean Body Weight Change Following Surgery, day 2 post surgery [4] | Mean Body Weight Change Following Surgery, day 5 post surgery [4] | Mean Body Weight Change Following Surgery, day 8 post surgery [4] | Mean Body Weight Change Following Surgery, day 10 post surgery [4] | Mean Body Weight Change Following Surgery, day 14 post surgery [4] | R-kidney (non-ligated) weight [2]
CCc1nc(C)ccc1O [Emoxypine, 2-Ethyl-6-methyl-3-hydroxypyridine] | 1.31 | 42% | 0.362 g | 0.517 g | 3% | 20.1625 mg/dL | 0.20 mg/dL | 0 g | -0.56 g | -0.41 g | -0.15 g | 0.31 g | 0.52 g | –
CS(=O)(=O)Nc1cc2occ(NC=O)c(=O)c2cc1Oc1ccccc1 [Iguratimod, N-(7-(Methylsulfonamido)-4-oxo-6-phenoxy-4H-chromen-3-yl)formamide] | 1.67 | 27% | 0.380 g | 0.514 g | −2% | 17.875* mg/dL | 0.20 mg/dL | 0 g | -0.76 g | -1.03 g | -0.10 g | -0.45 g | 0.11 g | 0.133 g
Cc1ccc2c([nH]c(=O)c3c(=O)cc(C(=O)OCCC(C)C)oc32)c1C [Repirinast, 3-methylbutyl 7,8-dimethyl-4,5-dioxo-5,6-dihydro-4H-pyrano[3,2-c]quinoline-2-carboxylate] | 1.52 | 33% | 0.270 g | 0.427 g | 28% | 16.4*# mg/dL | 0.20 mg/dL | 0 g | -0.77 g | -1.69 g | -1.24 g | -1.23 g | -0.89 g | 0.157 g
CCOCC(O)COc1ccc(NC(=O)CC[S+](C)C)cc1.Cc1ccc(S(=O)(=O)[O-])cc1 (stereo not drawn) [Suplatast Tosylate, (3-{[4-(3-ethoxy-2-hydroxypropoxy)phenyl]amino}-3-oxopropyl)(dimethyl)sulfonium 4-methylbenzenesulfonate] | 1.31 | 42% | 0.342 g | 0.475 g | 9% | 19.61* mg/dL | 0.21 mg/dL | 0 g | -0.58 g | -0.41 g | 0.43 g | 0.45 g | 0.86 g | 0.133 g
CCCc1nc2c(C)cc(-c3nc4ccccc4n3C)cc2n1Cc1ccc(-c2ccccc2C(=O)O)cc1 [Telmisartan, 2-(4-{[4-Methyl-6-(1-methyl-1H-1,3-benzodiazol-2-yl)-2-propyl-1H-1,3-benzodiazol-1-yl]methyl}phenyl)benzoic acid] | 1.31 | 42% | 0.137 g | 0.265 g | 63% | 20.9 mg/dL | 0.20 mg/dL | 0 g | -1.09 g | -1.96 g | -0.80 g | -0.64 g | -0.13 g | 0.128 g
